The supplement of paper PMC11876631
± gives the standard deviation of the averaged measurements. Laboratory Escherichia coli strains with one amino-acid change in an essential protein, pooled on minimal glucose agar with carbenicillin or gentamicin at twice the control MIC (plus kanamycin and chloramphenicol for the plasmids), 48 h. Fold change of barcode share against drug-free plates; higher = less susceptible. Active = above 20 in both replicates (the paper's putatively resistant). '<' = one read or none on drug, '>' = one read or none on a drug-free plate. Shares are relative, so most strains fall below 1 when a few take over. Listed are strains with at least 15 reads on both drug-free plates, and hits; most hits rest on fewer reference reads. Replicate rank correlation about 0.5. Edits are read from barcodes.

B1: ppa; numbered along this chain (parent)
chain: MSLLNVPAGKDLPEDIYVVIEIPANADPIKYEIDKESGALFVDRFMSTAMFYPCNYGYINHTLSLDGDPVDVLVPTPYPLQPGSVIRCRPVGVLKMTDEAGEDAKLVAVPHSKLSKEYDHIKDVNDLPELLKAQIAHFFEHYKDLEKGKWVKVEGWENAEAAKAEIVASFERAKNK
B2: trpE; numbered along this chain (parent)
chain: MQTQKPTLELLTCEGAYRDNPTALFHQLCGDRPATLLLESADIDSKDDLKSLLLVDSALRITALGDTVTIQALSGNGEALLALLDNALPAGVESEQSPNCRVLRFPPVSPLLDEDARLCSLSVFDAFRLLQNLLNVPKEEREAMFFGGLFSYDLVAGFEDLPQLSAENNCPDFCFYLAETLMVIDHQKKSTRIQASLFAPNEEEKQRLTARLNELRQQLTEAAPPLPVVSVPHMRCECNQSDEEFGGVVRLLQKAIRAGEIFQVVPSRRFSLPCPSPLAAYYVLKKSNPSPYMFFMQDNDFTLFGASPESSLKYDATSRQIEIYPIAGTRPRGRRADGSLDRDLDSRIELEMRTDHKELSEHLMLVDLARNDLARICTPGSRYVADLTKVDRYSYVMHLVSRVVGELRHDLDALHAYRACMNMGTLSGAPKVRAMQLIAEAEGRRRGSYGGAVGYFTAHGDLDTCIVIRSALVENGIATVQAGAGVVLDSVPQSEADETRNKARAVLRAIATAHHAQETF
B3: yrfF; numbered along this chain (parent)
chain: MSTIVIFLAALLACSLLAGWLIKVRSRRRQLPWTNAFADAQTRKLTPEERSAVENYLESLTQVLQVPGPTGASAAPISLALNAESNNVMMLTHAITRYGISTDDPNKWRYYLDSVEVHLPPFWEQYINDENTVELIHTDSLPLVISLNGHTLQEYMQETRSYALQPVPSTQASIRGEESEQIELLNIRKETHEEYALSRPRGLREALLIVASFLMFFFCLITPDVFVPWLAGGALLLLGAGLWGLFAPPAKSSLREIHCLRGTPRRWGLFGENDQEQINNISLGIIDLVYPAHWQPYIAQDLGQQTDIDIYLDRHVVRQGRYLSLHDEVKNFPLQHWLRSTIIAAGSLLVLFMLLFWIPLDMPLKFTLSWMKGAQTIEATSVKQLADAGVRVGDTLRISGTGMCNIRTSGTWSAKTNSPFLPFDCSQIIWNDARSLPLPESELVNKATALTEAVNRQLHPKPEDESRVSASLRSAIQKSGMVLLDDFGDIVLKTADLCSAKDDCVRLKNALVNLGNSKDWDALVKRANAGKLDGVNVLLRPVSAESLDNLVATSTAPFITHETARAAQSLNSPAPGGFLIVSDEGSDFVDQPWPSASLYDYPPQEQWNAFQKLAQMLMHTPFNAEGIVTKIFTDANGTQHIGLHPIPDRSGLWRYLSTTLLLLTMLGSAIYNGVQAWRRYQRHRTRMMEIQAYYESCLNPQLITPSESLIE

Variants of: B1
Test: barcode share on antibiotic plates over drug-free plates; higher = less susceptible
Settings: with Escherichia coli (laboratory strain); antibiotic: carbenicillin; 2× MIC (3.1 µg/mL)
Description: (§1)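 A pool of E. coli strains, each edited to carry one amino-acid change in an essential protein, was grown for 48 h on minimal glucose agar with or without antibiotic; strain barcodes were sequenced; mean of two replicates.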

| Variant | fold change of barcode share |
| --- | --- |
| L94P | 0.208 ± 0.073 |
| L73P | 0.426 ± 0.14 |
| L94W | 0.374 ± 0.015 |
| I20A | 1.442 ± 0.0087 |
| V19W | 0.237 ± 0.07 |
| V19Q | 0.199 ± 0.16 |
| V70D | 0.398 ± 0.21 |
| V91A | 0.271 ± 0.033 |

Same assay, conditions: with Escherichia coli (laboratory strain); antibiotic: gentamicin; 2× MIC (MIC 0.45 µg/mL)

| Variant | fold change of barcode share |
| --- | --- |
| L94P | < 0.00329 |
| L73P | 0.00709 ± 0.0052 |
| L94W | 0.00526 ± 0.002 |
| I20A | 0.00621 ± 0.0033 |
| V19W | < 0.00515 |
| V91A | 0.00423 ± 0.0015 |

Variants of: B2
Test: as above
Settings: with Escherichia coli (laboratory strain); antibiotic: carbenicillin; 2× MIC (3.1 µg/mL)
Description: as §1

| Variant | fold change of barcode share |
| --- | --- |
| F25D | 0.318 ± 0.14 |
| F124Q | 0.312 ± 0.03 |
| F25A | 0.275 ± 0.049 |
| I466Q | 0.979 ± 0.3 |
| I466P | 3.05 ± 2.9 |
| V155A | 0.336 ± 0.058 |
| I466A | 0.862 ± 0.00047 |
| F25P | 0.441 ± 0.097 |
| V155P | 0.567 ± 0.025 |
| F304Q | 0.426 ± 0.063 |
| M421A | 0.563 ± 0.11 |
| F304A | 0.296 ± 0.13 |
| F25W | 0.552 ± 0.11 |
| V155Q | 0.47 ± 0.22 |
| F124A | 0.498 ± 0.091 |
| V155W | 0.425 ± 0.19 |
| M421P | 0.568 ± 0.14 |
| F124W | 0.371 ± 0.14 |
| F25Q | 0.395 ± 0.073 |
| M421D | 0.347 ± 0.056 |
| F124P | 1.06 ± 0.85 |
| V155D | 0.479 ± 0.35 |

Same assay, conditions: with Escherichia coli (laboratory strain); antibiotic: gentamicin; 2× MIC (MIC 0.45 µg/mL)

| Variant | fold change of barcode share |
| --- | --- |
| F25D | 0.0204 ± 0.013 |
| F124Q | < 0.0128 |
| F25A | 0.00887 ± 0.0085 |
| V155A | 0.0175 ± 0.015 |
| I466A | 0.0338 ± 0.011 |
| F25P | 0.017 ± 0.0094 |
| V155P | 0.0129 ± 0.01 |
| M421A | 0.0244 ± 0.022 |
| F304A | < 0.01 |
| F25W | 0.0349 ± 0.038 |
| V155Q | 0.971 ± 0.84 |
| F124A | < 0.0123 |
| V155W | < 0.011 |
| M421P | < 0.0147 |
| F124W | < 0.0131 |
| F25Q | < 0.00583 |
| F124P | < 0.013 |
| V155D | 0.0155 ± 0.011 |

Variants of: B3
Test: as above
Settings: with Escherichia coli (laboratory strain); antibiotic: carbenicillin; 2× MIC (3.1 µg/mL)
Description: as §1

| Variant | fold change of barcode share |
| --- | --- |
| V53A | 0.345 ± 0.1 |
| V53D | 0.249 ± 0.0068 |
| V53P | 0.29 ± 0.11 |
| V53Q | 1.39 ± 0.26 |
| V53W | 0.708 ± 0.17 |
| L57A | 0.592 ± 0.26 |
| L57D | 0.31 ± 0.1 |
| L57P | 0.36 ± 0.1 |
| L57Q | 0.349 ± 0.087 |
| L57W | 0.319 ± 0.1 |
| V88A | 0.295 ± 0.035 |
| V88D | 0.992 ± 0.052 |
| V88P | 0.665 ± 0.14 |
| V88Q | 0.437 ± 0.045 |
| V88W | 1.07 ± 0.092 |
| W108A | 0.478 ± 0.01 |
| W108D | 0.376 ± 0.14 |
| W108P | 0.487 ± 0.059 |
| W108Q | 0.21 ± 0.023 |
| L112A | 0.294 ± 0.1 |
| L112D | 0.651 ± 0.25 |
| L112Q | 0.263 ± 0.04 |
| L112W | 0.565 ± 0.18 |
| V117A | 0.269 ± 0.14 |
| V117D | 0.25 ± 0.087 |
| V117P | 2.17 ± 0.34 |
| V117Q | 1.01 ± 0.15 |
| V117W | 0.676 ± 0.026 |

Same assay, conditions: with Escherichia coli (laboratory strain); antibiotic: gentamicin; 2× MIC (MIC 0.45 µg/mL)

| Variant | fold change of barcode share |
| --- | --- |
| V53A | < 0.00946 |
| V53D | 0.018 ± 0.006 |
| V53P | 0.0162 ± 0.0056 |
| V53Q | < 0.0132 |
| V53W | < 0.00828 |
| L57A | < 0.0053 |
| L57D | < 0.0042 |
| L57P | 0.182 ± 0.25 |
| L57Q | 0.152 ± 0.21 |
| L57W | < 0.00632 |
| V88A | 0.0633 ± 0.04 |
| V88D | 3.83 ± 4.9 |
| V88P | 0.0024 ± 0.0015 |
| V88Q | 0.0302 ± 0.02 |
| V88W | 0.335 ± 0.4 |
| W108A | 0.00513 ± 0.00047 |
| W108D | 0.00505 ± 0.00089 |
| W108P | 0.0125 ± 0.0096 |
| W108Q | 0.25 ± 0.35 |
| L112A | 0.00787 ± 0.007 |
| L112D | 7.07 ± 9.6 |
| L112Q | 0.199 ± 0.27 |
| L112W | 0.0141 ± 0.011 |
| V117A | 0.0054 ± 0.0018 |
| V117D | 9.37 ± 13 |
| V117W | 0.097 ± 0.12 |
| L112P | > 214 [active] |
| W123A | 0.00885 ± 0.0031 |
| W123D | 0.019 ± 0.019 |
